# From the supplement of paper PMC3334620
# The full ranking holds about 33,000 sequences; the median of “E-score (-0.5 to 0.5)” is about -0.035, and the highest 2% start at about 0.35. Some of the results follow.
# Biological target: T1, Pdr3 (UniProt P33200)
# T1 sequence: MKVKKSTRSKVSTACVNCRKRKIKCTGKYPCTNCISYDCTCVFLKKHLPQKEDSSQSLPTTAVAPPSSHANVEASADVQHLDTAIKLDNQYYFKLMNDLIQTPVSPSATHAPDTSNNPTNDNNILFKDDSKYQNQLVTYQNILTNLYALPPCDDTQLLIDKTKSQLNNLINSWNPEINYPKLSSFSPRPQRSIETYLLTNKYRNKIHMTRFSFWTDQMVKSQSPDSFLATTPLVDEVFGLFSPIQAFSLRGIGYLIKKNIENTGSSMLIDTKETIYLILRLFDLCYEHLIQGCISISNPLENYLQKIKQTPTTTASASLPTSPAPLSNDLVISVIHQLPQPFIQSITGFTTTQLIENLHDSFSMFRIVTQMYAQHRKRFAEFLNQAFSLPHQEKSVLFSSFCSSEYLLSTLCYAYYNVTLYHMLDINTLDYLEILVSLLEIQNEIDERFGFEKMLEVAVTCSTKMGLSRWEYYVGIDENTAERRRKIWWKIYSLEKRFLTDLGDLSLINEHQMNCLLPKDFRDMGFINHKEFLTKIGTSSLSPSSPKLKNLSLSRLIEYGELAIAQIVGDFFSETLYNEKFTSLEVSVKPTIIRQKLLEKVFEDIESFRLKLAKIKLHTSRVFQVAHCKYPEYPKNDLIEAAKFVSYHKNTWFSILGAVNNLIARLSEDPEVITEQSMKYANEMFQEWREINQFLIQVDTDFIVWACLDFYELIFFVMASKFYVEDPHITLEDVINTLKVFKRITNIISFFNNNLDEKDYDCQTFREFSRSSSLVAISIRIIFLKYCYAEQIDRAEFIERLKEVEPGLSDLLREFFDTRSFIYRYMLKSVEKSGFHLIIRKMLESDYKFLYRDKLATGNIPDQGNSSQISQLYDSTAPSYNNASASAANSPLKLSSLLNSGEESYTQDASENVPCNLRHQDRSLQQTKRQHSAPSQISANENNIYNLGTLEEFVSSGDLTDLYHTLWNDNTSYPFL
# Assay: PBM E-score (8-mer binding enrichment) (E-score (-0.5 to 0.5)); higher = stronger / more preferred TF binding; most listed sequences are background and not binding sites
# Settings: protein concentration: 200 nM; construct: GST-full length
# Procedure, shortened: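 Each ungapped eight-base word and its reverse complement, pooled, received an E-score from the Universal PBM Analysis Suite. Underlying scans, normalised with masliner, recorded fluorescent anti-GST bound to GST-tagged yeast transcription factors. These were applied at about 100-200 nM to universal all-10-mer Agilent arrays double-stranded by primer extension.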
row,Sequence,PBM E-score
1,CTACCGAA,-0.0817
2,CGCCTAAC,-0.081
3,CAACAATA,0.0309
4,ACCCCCCT,-0.387
5,TACTGTCA,-0.0263
6,AGGATTCA,-0.108
7,GCTGGGTA,-0.0815
8,AACAGTAT,-0.148
9,ACTTATGG,0.01
10,CCATTGAG,-0.019
11,CCGATTTC,0.193
12,AACTTCTC,-0.154
13,CCCCGCCC,0.227
14,ATACCAAA,-0.0555
15,ATGCACTC,-0.0296
16,ACAGATAG,-0.231
17,ATTTCGTA,-0.0611
18,GGAGTTTA,0.0289
19,AACGTTCC,0.299
20,CTTGAGAA,-0.384
21,AAGTAAGT,0.0143
22,AACGGCAG,0.162
23,ACTTATAC,0.0789
24,ATTGTGTC,0.00304

row,Sequence,PBM E-score
1,CAATTCTC,-0.138
2,GATCTCGC,0.0504
3,CTGCCGCC,-0.0369
4,GTTGCCTA,0.0329
5,CAAGTTGA,0.00197
6,GACCATCA,-0.0483
7,AAAGTTAA,-0.0793
8,TACTATGA,-0.0367
9,AGTCGGAC,0.117
10,ATACCGCG,0.352
11,ATTTATTG,-0.0869
12,ATAGAAAG,-0.0611
13,GTTGGACA,-0.18
14,GAGCGCTC,-0.055
15,CCATTATA,0.159
16,ATGGTTTA,-0.00271
17,CTCGTTGC,0.0672
18,TACTGGGA,0.00434
19,TGTGTTAA,-0.176
20,AGCGAGGG,-0.318
21,AGTGCGAC,0.081
22,CGAAAGAA,0.0334
23,ACCCGAGG,0.163
24,CGTCTTGA,-0.0672

row,Sequence,PBM E-score
1,AACAGAAA,-0.145
2,ACGATGGC,-0.0785
3,GTACAACA,-0.0511
4,GTACACAA,-0.104
5,CTATGACA,-0.14
6,GCAGGAAC,-0.0174
7,ATACATGC,-0.0713
8,CGCGTTCA,0.0334
9,CATGCCGG,0.36
10,ATCAAAGG,-0.173
11,ATGAGACC,0.0286
12,CAAGGGCA,-0.0651
13,ACGCCATC,0.0524
14,CCACCGAA,-0.144
15,ATTCATGA,-0.13
16,AATTATCC,0.128
17,ACATGGTA,-0.0365
18,TACATTAA,-0.00906
19,AGATTTAG,-0.0838
20,CTCTTGTC,-0.032
21,ATGGCCAA,-0.0844
22,GTGTAATA,0.0133
23,GCGGGCCA,0.0261
24,AGTAAATC,-0.0807

row,Sequence,PBM E-score
1,GGATAAGA,0.0362
2,AACACGCC,-0.0215
3,GAAATGTC,-0.0586
4,AAGATTGA,-0.131
5,GAATAGTA,-0.0424
6,CGTATCCA,-0.0807
7,CTAAGAAG,-0.0671
8,CAAACCCA,0.0119
9,GAGCGACC,-0.0396
10,CACTCCCG,0.197
11,CGGACAAG,0.265
12,CTCTCTGC,-0.0361
13,ACCCACGT,-0.0848
14,AAACGGTA,0.172
15,ATCGTTGA,-0.0121
16,AGCATTAG,-0.0829
17,ATCGTCAA,-0.0359
18,CACCTTAG,-0.142
19,ACGGACTC,0.205
20,GCAACCCC,0.0189
21,ACTGAGAA,-0.121
22,ATGACGAG,-0.0951
23,ATAAATGG,-0.0765
24,CGGGATTA,0.404

row,Sequence,PBM E-score
1,ACATTTAT,-0.248
2,GCTCTTTA,0.0466
3,AAAGGTCG,-0.167
4,CTTACGTC,-0.169
5,TCATTAAA,0.179
6,TCTTAAAA,-0.203
7,CTTAGTAA,-0.0875
8,GTTATGGA,-0.00256
9,ACTGTAGG,0.0131
10,ACGAAGGA,-0.0865
11,ACTCTACA,-0.229
12,AGCACGCT,-0.243
13,CACTCCGA,0.102
14,TCCATGCA,0.162
15,AGTGCTTG,-0.0454
16,CGAATGTC,0.0506
17,ATTTGCCG,0.192
18,CTCTCCTA,-0.146
19,AACATACG,0.103
20,AATGCCCG,0.166
21,AAGCACCA,-0.219
22,ACCAATAG,-0.165
23,CCTCTGCC,-0.208
24,GGACGCGA,0.11

row,Sequence,PBM E-score
1,AGCTGTAT,-0.135
2,ACCTTACC,0.0407
3,TAGCAACA,-0.0337
4,CCGCTAGC,0.0214
5,CGAGTTTC,0.0626
6,ACGGCGTG,0.123
7,AGTGGTTG,-0.00222
8,GAAGGACC,0.0543
9,GAATAGCC,0.0215
10,AACAGCGA,-0.127
11,ATGAACAA,-0.0432
12,AATAGGCA,0.0167
13,GAGGCTAC,-0.163
14,CTTGACAA,-0.0603
15,GAGGCGAA,0.0545
16,CGAGGGTC,-0.0181
17,ATGTGGGA,0.0287
18,AATTTGCG,0.0706
19,GCTGTACA,-0.21
20,GAACATTC,0.156
21,CACTGGAA,-0.107
22,GACAAGCA,-0.145
23,ATTCTTTC,0.0556
